Measurements reported in PubChem BioAssay AID445 (National Center for Advancing Translational Sciences (NCATS), 2006).
About 40 (0.04%) of roughly 110,000 compounds were called active. The inconclusive results got no clear call from the source; some entries with a clear call stand among them for comparison. Calls come from the whole dose curve; as a rule, active = well fitted curve in the direction sought with a large enough effect in the signal ratio (not every such curve was filed as active); inconclusive = small, poorly fitted or top-dose-only effect, or a change in a side signal; inactive = flat fitted curve, though single readings scatter; the % refers to the signal ratio. A potency beside an inconclusive call is a rough fit, not a confirmed value.

Experiment: IkB Signaling;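 for IkBa stabilization activation: 0% = basal untreated cells and 100% = reference inhibitor full response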
Details: ABC-DLBCL IkBa-CBG/CBR dual luciferase ratio (green luciferase fused to IkBa over red control in OCI-Ly3 lymphoma cells), 4 h; IkBa stabilization activation: at 57.1 µM (top of the series), scaled: untreated 0%, proteasome inhibitor 100% unless noted
Method in brief: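 Curves were fitted separately to fusion (green), unfused (red) and ratio luminescence, then classed by r2, magnitude and activity. Cells: OCI-Ly3, 4 h compound plus doxycycline at 37C; 10 uM MG-132 defined full response.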
Potency is the fitted concentration of half-maximal effect.

Row | SMILES | IkBa stabilization activation | Potency
1 | O=C(c1ccco1)N1C(=O)c2cccc3cccc1c23 | inactive: -2.81% | –
2 | CCC(C)c1ccc(O)c(NC(=O)c2cccnc2)c1 (stereo not given) | inactive: -1.38% | –
3 | CSc1ccc(CCNC(=O)c2cnn(-c3ccccc3)c2-n2cccc2)cc1 | inconclusive: 2.9% [signal inhibitor] | –
4 | CCN(CC)c1cc(C)c2cc(NC(=O)c3cccc(F)c3)ccc2n1 | inconclusive: 3% [signal inhibitor] | –
5 | O=C(NCC(=O)N(Cc1ccc(F)cc1)C(C(=O)NC1CCCC1)c1ccco1)c1ccco1 (stereo not given) | inactive: 0.888% | –
6 | Cc1cccc(NC(=O)c2cc(S(=O)(=O)N3CCc4ccccc43)ccc2F)c1C | inconclusive: 1.58% [signal inhibitor] | –
7 | COc1ccc(N2CCN(C(=O)C3CCCN(S(=O)(=O)c4ccc5c(c4)CCCN5C(C)=O)C3)CC2)cc1 (stereo not given) | inconclusive: 3.81% [signal inhibitor] | –
8 | COc1ccc(OC)c(-c2cc(C(=O)NCCc3ccccc3)c3c(-c4ccc(C)cc4)[nH]nc3n2)c1 | inactive: 1.57% | –
9 | Cc1ccc(N2C(=O)CSC23C(=O)N(CC(=O)NCCc2ccccc2)c2ccccc23)cc1C (stereo not given) | inconclusive: 0.437% [signal inhibitor] | –
10 | Cn1c2ccccc2c2ncn(CCCN3CCOCC3)c(=O)c21 | inactive: -1% | –
11 | c1ccc(-c2csc(N3CCN(c4ccccn4)CC3)n2)cc1 | inconclusive: -2.35% [signal inhibitor] | –
12 | CC(C)CS(=O)(=O)c1oc(-c2ccc(F)cc2)nc1S(=O)(=O)c1ccccc1 | inconclusive: -2.25% [signal inhibitor] | –
13 | COc1cccc(Cn2nnc(C(=O)Nc3cc(C)ccc3C)c2N)c1 | inconclusive: 0.904% [signal inhibitor] | –
14 | COc1ccc(OC)c(C(c2nnnn2C(C)(C)C)N2CCc3ccccc3C2)c1 (stereo not given) | inconclusive: 2.16% [signal inhibitor] | –
15 | CCOc1ccccc1CNC(=O)Cn1c(-c2ccccc2)cc(C(C)=O)c1C | inconclusive: 0.451% [signal inhibitor] | –
16 | O=C(Cn1c(=O)n(Cc2ccccc2)c(=O)c2sc3ccccc3c21)NCc1ccccc1Cl | inactive: 0.125% | –
17 | O=C(NC1CC(=O)N(c2cccc(F)c2)C1)c1ccc(S(=O)(=O)N2CCCC2)cc1 (stereo not given) | inconclusive: 0.54% [signal inhibitor] | –
18 | Cc1ccc2nc(NC(=O)CSc3nccn3Cc3ccc(Cl)cc3)sc2c1 | inconclusive: 9.92% [signal inhibitor] | –
19 | Fc1ccc(Nc2nc(N3CCOCC3)c3ccccc3n2)cc1 | inconclusive: 1.93% [signal inhibitor] | –
20 | COc1ccc(C(=O)c2oc3ccccc3c2NC(=O)COc2ccccc2)cc1 | inconclusive: 17.9% [signal inhibitor] | –
21 | COc1ccc(CCNC(=O)c2sc3nc4n(c(=O)c3c2C)CCCC4)cc1OC | inconclusive: 2.02% [signal inhibitor] | –
22 | Nc1nonc1-c1nc2ccccc2n1CC(=O)NC1CCCC1 | inactive: 5.42% | –

Row | SMILES | IkBa stabilization activation | Potency
23 | Cc1ccc(C)c(-n2nnnc2Sc2nnnn2-c2ccccc2)c1 | inconclusive: 2.39% [signal inhibitor] | –
24 | CC1=CC(C)=Nc2ccc(C)cc2N1 | inconclusive: 6.2% [signal inhibitor] | –
25 | Clc1cccc(-c2nnc(-c3ccccc3)o2)c1 | – | inconclusive: 20 µM [signal inhibitor, partial curve]
26 | CCOC(=O)c1cc(-c2ccccc2)n(-c2cccc(C(=O)Nc3cccc(F)c3)c2)c1C | inconclusive: -0.767% [signal inhibitor] | –
27 | COc1ccc(S(=O)(=O)N2CCC(C(=O)N3CCCCC3)CC2)cc1OC | inactive: -0.384% | –
28 | COc1ccc2[nH]cc(CCNc3nc(-c4ccc(C(=O)N(C)C)cc4)nc4ccccc34)c2c1 | inactive: -5.34% [at 11.4 µM, scaled: untreated 0%, proteasome inhibitor 100%] | –
29 | C/C(N)=C(/C#N)C(=O)CSc1nnc(SCc2ccc(Cl)cc2)s1 | inconclusive: 11.5% [signal inhibitor] | –
30 | CCn1c(=O)c2cc(C(=O)Nc3cc(F)ccc3F)sc2c2ccccc21 | – | inconclusive: 0.0251 µM [signal inhibitor, full curve]
31 | COc1ccc2[nH]cc(CCNc3ccnc(-c4ccc(C(=O)N(C)C)cc4)n3)c2c1 | inactive: 0.774% [at 11.4 µM, scaled: untreated 0%, proteasome inhibitor 100%] | –
32 | Cn1c(=O)c(=O)n(C)c2cc(S(=O)(=O)Nc3ccc4c(c3)OCCO4)ccc21 | inconclusive: 4.79% [signal inhibitor] | –
33 | Cc1ccc(CN2CCC(CNc3ncnc4onc(-c5ccc(F)cc5)c34)CC2)cc1 | inconclusive: 0.0441% [signal inhibitor] | –
34 | O=C(O)[C@@H]1CS[C@@]2(CCCN(Cc3ccccc3)C2)N1 | inactive: -0.773% [at 11.4 µM, scaled: untreated 0%, proteasome inhibitor 100%] | –
35 | O=c1c(CCc2ccccc2)nc2cnc(Oc3cccc(Cl)c3)nc2n1C[C@H]1CCCO1 | inactive: 3.92% [at 11.4 µM, scaled: untreated 0%, proteasome inhibitor 100%] | –
36 | COc1ccc(-c2n[nH]c(=S)n2C2CCCCC2)cc1 | inconclusive: 11.6% [signal inhibitor] | –
37 | CCCCn1c(=NC(=O)c2ccco2)c(C(=O)OCC)cc2c(=O)n3ccccc3nc21 | – | inconclusive: 20 µM [rising, partial curve]
38 | Cc1c(C(=O)c2no[n+]([O-])c2C(=O)c2cnn(C)c2C)cnn1C | inconclusive: 0.0599% [signal inhibitor] | –
39 | COc1cccc(-c2nc(SCc3cc(=O)c4ccc(C)c(C)c4[nH]3)n[nH]2)c1 | inconclusive: -0.145% [signal inhibitor] | –
40 | Clc1ccc(-c2nnc(-c3ccccc3)o2)c(Cl)c1 | – | inconclusive: 31.6 µM [signal inhibitor, partial curve]
41 | Cc1ccc(Cc2c(C)nc3nc(SCC(=O)NC(C)c4ccccc4)nn3c2C)cc1 (stereo not given) | inconclusive: 11.9% [signal inhibitor] | –
42 | COc1ccc(S(=O)(=O)c2nnn(-c3cc(Cl)c(OC)cc3OC)c2C)cc1 | inconclusive: 1.94% [signal inhibitor] | –
43 | Cn1c(=O)c2c(-c3ccccc3)n3c4ccccc4nc(-c4ccccc4)c3c2n(C)c1=O | inconclusive: 2.09% [signal inhibitor] | –
44 | COc1ccc(C(=O)NCC(c2cccnc2)N2CCc3ccccc3C2)cc1OC (stereo not given) | inconclusive: -0.121% [signal inhibitor] | –

Row | SMILES | IkBa stabilization activation | Potency
45 | Cc1ccc(Cl)cc1NC(=O)C(C)n1nnc2sc3c(c2c1=O)CCCC3 (stereo not given) | inconclusive: 1.3% [signal inhibitor] | –
46 | Cc1cccc(N2CCN(S(=O)(=O)c3ccc4c(c3)CCCN4C(=O)C3CCC3)CC2C)c1 (stereo not given) | inconclusive: 4.69% [signal inhibitor] | –
47 | COc1ccc(Cn2c(=O)[nH]c3cc(C(=O)N4CCN(c5cccc(Cl)c5)CC4)ccc3c2=O)cc1 | inconclusive: 4.51% [signal inhibitor] | –
48 | CCOC(=O)c1ccc(CN(Cc2ccc(F)cc2)S(=O)(=O)c2cc(C(=O)Nc3cccc(C(F)(F)F)c3)ccc2F)cc1 | inconclusive: -0.989% [signal inhibitor] | –
49 | COc1cc2c(=O)c(S(=O)(=O)c3ccc(F)cc3)cn(Cc3ccc(Cl)cc3)c2cc1OC | inconclusive: 1.1% [signal inhibitor] | –
50 | CCOC(=O)c1c(N)sc(C(=O)N(C)C)c1C | inactive: 0.00388% | –
51 | CCCN1C(C(=O)c2ccccc2)=C(OC(=O)COc2ccccc2)c2ccccc2S1(=O)=O | inconclusive: 3.34% [signal inhibitor] | –
52 | NC(N)=NC(N)=Nc1c(F)c(F)c(F)c(F)c1F | inactive: 1.93% [at 11.4 µM, scaled: untreated 0%, proteasome inhibitor 100%] | –
53 | CCOC(=O)c1[nH]c2ccc(F)cc2c1NC(=O)c1cc(OC)c(OC)c(OC)c1 | inconclusive: 3.73% [signal inhibitor] | –
54 | Cc1ccc2[nH]c3nc(SCCN4CCOCC4)nnc3c2c1 | inactive: -3.74% | –
55 | O=C(Cn1cnc2c(oc3ccccc32)c1=O)Nc1ccccc1C(F)(F)F | – | inconclusive: 7.94 µM [signal inhibitor]
56 | Cc1ccc(-c2nnc(Nc3cccc(Cl)c3)c3ccccc23)cc1S(=O)(=O)N1CCOCC1 | inconclusive: 1.99% [signal inhibitor] | –
57 | COc1ccc(OCC(=O)Nc2cccc(-c3nc4ccccc4o3)c2)cc1 | inactive: 2.23% | –
58 | Cc1cc(C)c(NC(=O)CSc2nc3ccccc3nc2N2CCCCC2)c(C)c1 | inconclusive: -0.0224% [signal inhibitor] | –
59 | CCC(C(=O)Nc1cccc(Cl)c1C)n1nc(-c2ccc(C)cc2)ccc1=O (stereo not given) | inconclusive: 2.09% [signal inhibitor] | –
60 | CC(C)COc1cccc(C(=O)Nc2ccc(-c3nc4ncccc4o3)cc2)c1 | inactive: 2.94% | –
61 | CC1CCN(C(=O)Cn2cc(SCC(=O)NCc3ccccc3Cl)c3ccccc32)CC1 | inconclusive: 2.53% [signal inhibitor] | –
62 | O=C(C(c1ccccc1)c1ccccc1)N1CCN(CC(O)COc2ccccc2)CC1 (stereo not given) | inconclusive: 2.11% [signal inhibitor] | –
63 | CNCCCC12CCC(c3ccccc31)c1ccccc12 | inconclusive: 0.454% [signal inhibitor] | –
64 | CCCN(CCC)CCCNC(=O)C1CCC(CNS(=O)(=O)c2cccc3nsnc23)CC1 (stereo not given) | inconclusive: 0.435% [signal inhibitor] | –
65 | CN(C)CCn1c(CO)nc2c1c(=O)n(C)c(=O)n2C | inactive: -0.313% [at 11.4 µM, scaled: untreated 0%, proteasome inhibitor 100%] | –
